Experiment [1] concerns the target T1, ProtA-Clp1 K136A T137A (yeast) (UniProt Q08685).
T1 sequence: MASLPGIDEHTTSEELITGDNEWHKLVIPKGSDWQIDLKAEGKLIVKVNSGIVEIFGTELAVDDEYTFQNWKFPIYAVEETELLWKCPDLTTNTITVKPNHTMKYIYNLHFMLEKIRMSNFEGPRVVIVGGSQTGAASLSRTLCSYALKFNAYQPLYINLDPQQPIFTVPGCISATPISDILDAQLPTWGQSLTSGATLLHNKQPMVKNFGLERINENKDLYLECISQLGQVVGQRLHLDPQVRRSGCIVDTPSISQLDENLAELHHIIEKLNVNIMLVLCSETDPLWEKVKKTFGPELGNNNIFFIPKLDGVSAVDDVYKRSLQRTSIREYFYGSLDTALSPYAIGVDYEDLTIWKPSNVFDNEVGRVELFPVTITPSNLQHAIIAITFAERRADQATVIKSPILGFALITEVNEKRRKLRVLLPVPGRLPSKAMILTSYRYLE
Briefly: co-IP; partial purification of CF IA from yeast by the ProtA tag on Clp1, final high salt wash (1 M KCl); Western blot for Rna15, Pcf11, Clp1 and Rna14 (Fig. 4A).

The chains behind the UniProt entries cited, without tags or fusion partners. Where a name states a change or a piece, a line headed by the entry shows the natural chain unless it says otherwise. Residues count along the entry.
UniProt P39081, residues 289-626: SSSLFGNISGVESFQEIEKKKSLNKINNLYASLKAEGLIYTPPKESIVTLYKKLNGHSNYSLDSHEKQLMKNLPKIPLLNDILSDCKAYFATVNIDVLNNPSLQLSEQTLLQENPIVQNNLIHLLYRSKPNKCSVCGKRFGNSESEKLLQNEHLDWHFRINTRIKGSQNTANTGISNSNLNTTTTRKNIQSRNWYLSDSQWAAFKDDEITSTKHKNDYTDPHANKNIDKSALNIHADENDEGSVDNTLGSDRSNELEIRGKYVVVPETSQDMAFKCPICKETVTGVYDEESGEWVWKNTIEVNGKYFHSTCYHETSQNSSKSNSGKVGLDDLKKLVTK

Experiment [2] addresses T2, ProtA-Clp1 (yeast) (UniProt Q08685).
T2 sequence: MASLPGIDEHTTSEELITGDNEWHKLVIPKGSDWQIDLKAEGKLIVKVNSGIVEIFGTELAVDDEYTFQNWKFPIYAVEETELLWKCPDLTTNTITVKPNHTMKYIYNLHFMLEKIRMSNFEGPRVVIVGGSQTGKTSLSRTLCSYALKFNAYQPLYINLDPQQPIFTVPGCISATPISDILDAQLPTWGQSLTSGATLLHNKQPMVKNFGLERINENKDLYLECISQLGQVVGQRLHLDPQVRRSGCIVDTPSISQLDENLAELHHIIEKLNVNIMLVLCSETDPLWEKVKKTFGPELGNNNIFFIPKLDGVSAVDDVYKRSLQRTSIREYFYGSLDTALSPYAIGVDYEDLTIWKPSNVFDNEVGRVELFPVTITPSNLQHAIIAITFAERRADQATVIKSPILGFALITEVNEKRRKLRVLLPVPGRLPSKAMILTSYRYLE
The description is as above.

Experiment [3] deals with GST-Pcf11ΔN288 (yeast) (UniProt P39081). The experiment can be described thus: pull-down; reconstitution of CF IA from heterologously expressed subunits: GST-Pcf11ΔN288 immobilised on glutathione sepharose, His6-Clp1 (wild-type or mutant) and preformed His6-Rna14/Rna15 dimers added; data not shown.

In article PMC3245249 one finds binding data, which are given here for 2 molecules.

No constants are given. Whether binding was seen depends on the method and setting. In cells and extracts the contact can be indirect. Some binding calls cover weakened binding; strength is not graded here. For part of these data: Where a sequence is shown, tags or fusion partners need not be part of it.

B1: Rna14, endogenous in yeast (protein, UniProt P25298 1-677)
chain: MSSSTTPDLLYPSADKVAEPSDNIHGDELRLRERIKDNPTNILSYFQLIQYLETQESYAKVREVYEQFHNTFPFYSPAWTLQLKGELARDEFETVEKILAQCLSGKLENNDLSLWSTYLDYIRRKNNLITGGQEARAVIVKAFQLVMQKCAIFEPKSSSFWNEYLNFLEQWKPFNKWEEQQRIDMLREFYKKMLCVPFDNLEKMWNRYTQWEQEINSLTARKFIGELSAEYMKARSLYQEWLNVTNGLKRASPINLRTANKKNIPQPGTSDSNIQQLQIWLNWIKWERENKLMLSEDMLSQRISYVYKQGIQYMIFSAEMWYDYSMYISENSDRQNILYTALLANPDSPSLTFKLSECYELDNDSESVSNCFDKCTQTLLSQYKKIASDVNSGEDNNTEYEQELLYKQREKLTFVFCVYMNTMKRISGLSAARTVFGKCRKLKRILTHDVYVENAYLEFQNQNDYKTAFKVLELGLKYFQNDGVYINKYLDFLIFLNKDSQIKTLFETSVEKVQDLTQLKEIYKKMISYESKFGNLNNVYSLEKRFFERFPQENLIEVFTSRYQIQNSNLIKKLELTYMYNEEEDSYFSSGNGDGHHGSYNMSSSDRKRLMEETGNNGNFSNKKFKRDSELPTEVLDLLSVIPKRQYFNTNLLDAQKLVNFLNDQVEIPTVESTKSG
Take B1: the binding entry in experiment [1] and in experiment [2] was “binds” each time.

B2: His6-Clp1, recombinant, for CF IA reconstitution (protein, UniProt Q08685 1-445)
chain: MASLPGIDEHTTSEELITGDNEWHKLVIPKGSDWQIDLKAEGKLIVKVNSGIVEIFGTELAVDDEYTFQNWKFPIYAVEETELLWKCPDLTTNTITVKPNHTMKYIYNLHFMLEKIRMSNFEGPRVVIVGGSQTGKTSLSRTLCSYALKFNAYQPLYINLDPQQPIFTVPGCISATPISDILDAQLPTWGQSLTSGATLLHNKQPMVKNFGLERINENKDLYLECISQLGQVVGQRLHLDPQVRRSGCIVDTPSISQLDENLAELHHIIEKLNVNIMLVLCSETDPLWEKVKKTFGPELGNNNIFFIPKLDGVSAVDDVYKRSLQRTSIREYFYGSLDTALSPYAIGVDYEDLTIWKPSNVFDNEVGRVELFPVTITPSNLQHAIIAITFAERRADQATVIKSPILGFALITEVNEKRRKLRVLLPVPGRLPSKAMILTSYRYLE
In the case of B2, the binding result in experiment [3] is “binds”.
